Results as given in the supplement of paper PMC4967469.
A lower IC50 marks a more sensitive line; a fit beyond the top or the lowest dose is shown as a bound at that dose. The AUC spans the tested range (256-fold, ending at the top dose) of the same fit: 1 means no effect, lower means more sensitive. For some of these results: Where the top dose is marked as inferred, it comes from the curve model; the source does not state it. For some of these results: Drugs with an entry number were screened twice under separate entries, and the two screens often disagree.

How the values were obtained:
Assay in all cases: Viability of human cancer cell lines after 72 h of drug (GDSC screen)
Cytarabine = compound: Nc1ccn([C@@H]2O[C@H](CO)[C@@H](O)[C@@H]2O)c(=O)n1 [Cytarabine]; details: top dose 2 µM
Method: (§1)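 Human cancer cell lines in 384-well plates, medium with 10% serum, drug for 72 h over a 256-fold dose range (nine 2-fold or five 4-fold steps up to the top dose). Adherent lines were fixed and stained with the nucleic acid dye Syto60, suspension lines read with resazurin; signal relative to control wells, capped at 0 and 100%. One two-parameter sigmoid per drug and line, fitted in a mixed model over all curves with the slope shared within a line.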

Thapsigargin = compound: C/C=C(/C)C(=O)O[C@H]1C(C)=C2[C@H]([C@@H]1OC(=O)CCCCCCC)[C@@](C)(OC(C)=O)C[C@H](OC(=O)CCC)[C@@]1(O)[C@H]2OC(=O)[C@@]1(C)O [Thapsigargin]; details: top dose 0.512 µM; top dose inferred
Method: as §1

GSK269962A = compound: CCn1c(-c2nonc2N)nc2cnc(Oc3cccc(NC(=O)c4ccc(OCCN5CCOCC5)cc4)c3)cc21 [GSK269962A]; details: top dose 5 µM; screen: GDSC drug entry 1192; top dose inferred
Method: as §1

Zibotentan = compound: COc1nc(C)cnc1NS(=O)(=O)c1cccnc1-c1ccc(-c2nnco2)cc1 [Zibotentan]; details: top dose 20 µM; top dose inferred
Method: as §1

ABT-888 = compound: C[C@]1(c2nc3c(C(N)=O)cccc3[nH]2)CCCN1 [ABT-888]; details: top dose 5 µM; top dose inferred
Method: as §1

MPS-1-IN-1 = compound: COc1cc(N2CCC(O)CC2)ccc1Nc1cc(Nc2ccccc2S(=O)(=O)C(C)C)c2cc[nH]c2n1 [MPS-1-IN-1]; details: top dose 20 µM; top dose inferred
Method: as §1

CHIR-99021 = compound: Cc1cnc(-c2cnc(NCCNc3ccc(C#N)cn3)nc2-c2ccc(Cl)cc2Cl)[nH]1 [CHIR-99021]
Method: as §1

QL-X-138 = compound: C=CC(=O)Nc1cc(-n2c(=O)ccc3cnc4ccc(-c5cn[nH]c5)cc4c32)ccc1C [QL-X-138]; details: top dose 10.24 µM; top dose inferred
Method: as §1

(5Z)-7-Oxozeaenol = compound: COc1cc(O)c2c(c1)/C=C/C[C@H](O)[C@H](O)C(=O)/C=C\C[C@H](C)OC2=O [(5Z)-7-Oxozeaenol]; details: top dose 10 µM; top dose inferred
Method: as §1

KU-55933 = compound: O=c1cc(-c2cccc3c2Sc2ccccc2S3)oc(N2CCOCC2)c1 [KU-55933]; details: top dose 10 µM
Method: as §1

ABT-869 = compound: Cc1ccc(F)c(NC(=O)Nc2ccc(-c3cccc4[nH]nc(N)c34)cc2)c1 [ABT-869]; details: top dose 1.024 µM; top dose inferred
Method: as §1

CP466722 = compound: COc1cc2ncnc(-n3nc(-c4ccccn4)nc3N)c2cc1OC [CP466722]; details: top dose 16 µM; top dose inferred
Method: as §1

[1] = top dose 2.56 µM, screen: GDSC drug entry 154
[2] = top dose 10 µM, screen: GDSC drug entry 1241, top dose inferred

Cell Line	AUC (Cytarabine)	IC50 (Cytarabine) [µM]	AUC (Thapsigargin)	IC50 (Thapsigargin) [µM]	AUC (GSK269962A)	IC50 (GSK269962A) [µM]	AUC (Zibotentan)	IC50 (Zibotentan) [µM]	AUC (ABT-888)	IC50 (ABT-888) [µM]	AUC (MPS-1-IN-1)	IC50 (MPS-1-IN-1) [µM]	AUC (CHIR-99021; [1])	IC50 (CHIR-99021; [1]) [µM]	AUC (CHIR-99021; [2])	IC50 (CHIR-99021; [2]) [µM]	AUC (QL-X-138)	IC50 (QL-X-138) [µM]	AUC ((5Z)-7-Oxozeaenol)	IC50 ((5Z)-7-Oxozeaenol) [µM]	AUC (KU-55933)	IC50 (KU-55933) [µM]	AUC (ABT-869)	IC50 (ABT-869) [µM]	AUC (CP466722)	IC50 (CP466722) [µM]
SKG-IIIa (cervix, adherent)	0.717	0.643	0.824	0.454	0.919	> 5	0.983	> 20	0.983	> 5	0.983	> 20	0.973	> 2.56	0.974	> 10	0.98	> 10.2	0.839	> 10	0.944	> 10	0.977	> 1.02	0.981	> 16
SKN (uterus, adherent)	0.762	0.858	0.402	0.0163	0.817	3.57	0.981	> 20	0.945	> 5	0.98	> 20	0.931	> 2.56	0.843	9.41	0.789	5.57	0.587	1.14	0.862	> 10	0.973	> 1.02	0.733	5.41
SKN-3 (head and neck, adherent)	0.789	1.07	0.822	0.372	0.933	> 5	0.978	> 20	0.953	> 5	0.96	> 20	0.982	> 2.56	0.937	> 10	0.81	6.6	0.581	1.08	0.911	> 10	0.981	> 1.02	0.889	> 16
SNG-M (endometrium, adherent)	0.722	0.525	0.145	0.00261	0.711	1.21	0.985	> 20	0.918	> 5	0.89	> 20	0.934	> 2.56	0.75	3.2	0.558	0.92	0.663	1.75	0.976	> 10	0.986	> 1.02	0.705	3.72
SNU-182 (liver, adherent)	0.723	0.555	0.177	0.00322	0.866	4.79	0.986	> 20	0.986	> 5	0.966	> 20	0.984	> 2.56	0.893	> 10	0.861	9.29	0.656	1.74	0.961	> 10	0.983	> 1.02	0.686	3.41
SNU-449 (liver, adherent)	0.886	> 2	0.302	0.0084	0.943	> 5	0.985	> 20	0.986	> 5	0.967	> 20	0.949	> 2.56	0.927	> 10	0.833	7.52	0.748	3.48	0.941	> 10	0.971	> 1.02	0.789	7.78
SUIT-2 (pancreas, adherent)	0.7	0.47	0.415	0.0184	0.929	> 5	0.979	> 20	0.966	> 5	0.838	14.4	0.986	> 2.56	0.973	> 10	0.884	> 10.2	0.678	2.01	0.986	> 10	0.986	> 1.02	0.71	4.04
SW13 (adrenal gland, adherent)	0.697	0.452	0.343	0.0117	0.855	4.07	0.988	> 20	0.967	> 5	0.988	> 20	0.972	> 2.56	0.986	> 10	0.939	> 10.2	0.39	0.31	0.962	> 10	0.983	> 1.02	0.988	> 16
SW756 (cervix, adherent)	0.68	0.442	0.42	0.0185	0.882	> 5	0.984	> 20	0.984	> 5	0.984	> 20	0.984	> 2.56	0.913	> 10	0.884	> 10.2	0.464	0.488	0.981	> 10	0.98	> 1.02	0.985	> 16
SW780 (bladder, adherent)	0.829	1.4	0.815	0.315	0.938	> 5	0.984	> 20	0.983	> 5	0.986	> 20	0.982	> 2.56	0.984	> 10	0.962	> 10.2	0.642	1.61	0.966	> 10	0.986	> 1.02	0.97	> 16
SW948 (large intestine, adherent)	0.834	> 2	0.917	> 0.512	0.977	> 5	0.974	> 20	0.978	> 5	0.87	> 20	0.961	> 2.56	0.98	> 10	0.791	7.2	0.806	8.28	0.982	> 10	0.98	> 1.02	0.914	> 16
SW1417 (large intestine, adherent)	0.952	> 2	0.419	0.0185	0.963	> 5	0.986	> 20	0.986	> 5	0.983	> 20	0.866	> 2.56	0.971	> 10	0.94	> 10.2	0.8	5.83	0.978	> 10	0.986	> 1.02	0.924	> 16
SW1573 (lung adenocarcinoma, adherent)	0.862	> 2	0.542	0.0434	0.884	> 5	0.981	> 20	0.977	> 5	0.979	> 20	0.956	> 2.56	0.956	> 10	0.892	> 10.2	0.679	2.37	0.965	> 10	0.981	> 1.02	0.872	> 16
SW1710 (bladder, adherent)	0.829	1.29	0.068	< 0.002	0.688	1.07	0.976	> 20	0.985	> 5	0.935	> 20	0.895	> 2.56	0.879	> 10	0.69	2.23	0.659	1.75	0.907	> 10	0.982	> 1.02	0.781	6.84
SW1783 (glioma, adherent)	0.903	> 2	0.287	0.00862	0.878	4.21	0.99	> 20	0.991	> 5	0.989	> 20	0.99	> 2.56	0.889	9.43	0.931	> 10.2	0.608	1.2	0.985	> 10	0.983	> 1.02	0.989	> 16
SiHa (cervix, adherent)	0.715	0.565	0.986	> 0.512	0.939	> 5	0.987	> 20	0.987	> 5	0.986	> 20	0.97	> 2.56	0.905	> 10	0.942	> 10.2	0.717	2.87	0.987	> 10	0.985	> 1.02	0.978	> 16
T47D (breast, adherent)	0.893	> 2	0.873	> 0.512	0.826	> 5	0.963	> 20	0.977	> 5	0.833	> 20	0.977	> 2.56	0.974	> 10	0.526	0.783	0.797	7.99	0.944	> 10	0.974	> 1.02	0.757	8.47
T84 (large intestine, adherent)	0.973	> 2	0.355	0.0126	0.907	> 5	0.981	> 20	0.989	> 5	0.879	> 20	0.989	> 2.56	0.983	> 10	0.888	> 10.2	0.893	> 10	0.987	> 10	0.986	> 1.02	0.849	12.3
T98G (glioma, adherent)	0.876	1.73	0.267	0.00738	0.832	2.87	0.987	> 20	0.948	> 5	0.976	> 20	0.943	> 2.56	0.871	8.24	0.935	> 10.2	0.744	2.92	0.984	> 10	0.982	> 1.02	0.858	11.6
TGBC11TKB (stomach, adherent)	0.965	> 2	0.864	0.363	0.962	> 5	0.992	> 20	0.992	> 5	0.906	> 20	0.988	> 2.56	0.981	> 10	0.99	> 10.2	0.921	> 10	0.963	> 10	0.988	> 1.02	0.924	> 16
